Measurements reported in patent publication US20240270806A1 (Chugai, published 2024).

What was measured:
Test in all cases: cell-based or functional assay
[1] = target: T1, Human IL-12 receptor (human IL-12Rb1 and IL-12Rb2) (human, UniProt P42701 24-662; Q99665 24-862)
[2] = target: T1, Human IL-12 receptor (human IL-12Rb1 …); remark: listed apart in the source
[3] = target: T1, Human IL-12 receptor (human IL-12Rb1 …); remark: listed apart in the source

- Improvement in window against FP14, IFN gamma release by human PBMC [1]: ≤ 5.8 fold
- Improvement in window against FP14, IL-12 luciferase assay [1]: > 25 fold
- Fold change (window), Donor 1, IFN gamma release by human PBMC [2]: 271 fold
- Fold change (window), Donor 2, IFN gamma release by human PBMC [2]: 235 fold
- Fold change (window), Donor 3, IFN gamma release by human PBMC [2]: 319 fold
- Fold change (window), IL-12 luciferase assay [3]: 583 fold
B1: Bivalent IL-12 fusion protein FP31 (other)
heavy: QVQLVQSGAEVKKPGSSVKVSCKASGGTFSDYYLHWSRQAPGQGLEWMGWIDPENGDTEYAPKFQGRVTITADESTSTAYMELSSLRSEDTAVYYCARNKELRYIDVWGQGTLVTVSSTSGSGRSATPRGASTKGPSVFPLAPCSKSTSGGTAALGCLVKDYFPEPVTVSWNSGALTSGVHTFPAVLQSSGLYSLSSVVTVPSSSLGTQTYICNVNHKPSNTKVDKRVGGGGSGGGGS[human IgG1 Fc with changes cut from this listing]GSGGSGGSGGSGGSGGSIWELKKDVYVVELDWPPDAPGEMVVLTCDTPEEDGITWTLDQSSEVLGSGKTLTIQVKEFGDAGQYTCHKGGEVLSHSLLLLHKKEDGIWSTDILKDQKEPKNKTFLRCEAKNYSGRFTCWWLTTISTDLTFSVKSSRGSSDPQGVTCGAATLSAERVRGDNKEYEYSVECQEDSACPAAEESLPIEVMVDAVHKLKYENYTSSFFIRDIIKPDPPKNLQLKPLKNSRQVEVSWEYPDTWSTPHSYFSLTFCVQVQGKHKEKKDRVFTDKTSATVICRKNASISVRAQDRYYSSSWSEWASVPCSGGGGSGGGGSGGGGSGGGGSNLPVATPDPGMFPCLHHSQNLLRAVSNMLQKARQTLEFYPCTSEEIDHEDITKDKTSTVEACLPLELTKNESCLNSRETSFITNGSCLASRKTSFMMALCLSSIYEDLKMYQVEFKTMNAKLLMDPKRQIFLDQNMLAVIDELMQALNFNSETVPQKSSLEEPDFYKTKIKLCILLHAFRIRAVTIDRVMSYLNAS
light: DIVMTQSPLSLPVTPGEPASISCRASQSISINLHWYQQKPGQAPRQLIAFASQSISGVPSRFSGSGSGTDFTLTISSLQPEDFATYYCQQSNSFPLTFGQGTKVEIKRTVAAPSVFIFPPSDEQLKSGTASVVCLLNNFYPREAKVQWKVDNALQSGNSQESVTEQDSKDSTYSLSSTLTLSKADYEKHKVYACEVTHQGLSSPVTKSFNRGEC
